Results published in the supplement of paper PMC3334620.
The full ranking holds about 33,000 sequences; the median of “E-score (-0.5 to 0.5)” is about -0.032, and the highest 2% start at about 0.36. Some of the results follow.

Biological target: T1, Sko1 (UniProt Q02100)
T1 sequence: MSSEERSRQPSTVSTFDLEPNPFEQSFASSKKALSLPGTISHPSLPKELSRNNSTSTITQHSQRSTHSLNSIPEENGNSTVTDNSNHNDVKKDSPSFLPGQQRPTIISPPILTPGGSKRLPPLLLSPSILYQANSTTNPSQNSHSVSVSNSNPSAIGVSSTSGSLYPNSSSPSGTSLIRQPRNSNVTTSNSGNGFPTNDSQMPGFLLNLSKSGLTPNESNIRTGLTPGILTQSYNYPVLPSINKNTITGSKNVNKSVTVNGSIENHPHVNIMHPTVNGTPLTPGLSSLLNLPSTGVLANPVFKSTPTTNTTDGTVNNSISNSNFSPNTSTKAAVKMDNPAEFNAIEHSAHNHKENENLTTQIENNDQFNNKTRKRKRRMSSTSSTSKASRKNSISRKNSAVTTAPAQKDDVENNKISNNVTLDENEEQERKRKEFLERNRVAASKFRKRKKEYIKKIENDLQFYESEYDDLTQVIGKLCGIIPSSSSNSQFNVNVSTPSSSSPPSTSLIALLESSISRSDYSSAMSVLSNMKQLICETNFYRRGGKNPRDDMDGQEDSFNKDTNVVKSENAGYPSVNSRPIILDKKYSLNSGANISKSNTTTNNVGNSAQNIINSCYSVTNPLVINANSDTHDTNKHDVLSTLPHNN
Assay: PBM E-score (8-mer binding enrichment) (E-score (-0.5 to 0.5)); higher = stronger / more preferred TF binding; most listed sequences are background and not binding sites
Settings: protein concentration: 200 nM; construct: GST-full length
Method: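 Universal 'all 10-mer' protein binding microarrays (Agilent AMADID 015681) probed with GST-tagged S. cerevisiae TFs (full-length or DBD) made by in vitro transcription/translation (PURExpress), about 100-200 nM. Bound TF was detected with fluorescent anti-GST. Each ungapped 8-mer (which stands for itself and its reverse complement) is scored by the PBM enrichment score (E-score), a modified Wilcoxon-Mann-Whitney statistic from -0.5 to +0.5, computed with the Universal PBM Analysis Suite. Scale: above 0.35 generally sequence-specific binding.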

| Sequence | PBM E-score |
| --- | --- |
| GCAGAGGC | -0.254 |
| AAATAACG | 0.306 |
| ATCGCCTG | -0.268 |
| CGGGCGAG | -0.218 |
| GGGCAGAA | -0.0113 |
| GGATTCTA | -0.0972 |
| CACTTTAG | -0.0915 |
| ATTGAGAC | 0.0754 |
| GGATGTAA | 0.134 |
| CTCGTAGC | -0.0204 |
| ATCTGTTC | 0.00362 |
| AGCAGATC | -0.0181 |
| ATATTTGC | 0.206 |
| ATCGCAGG | -0.143 |
| GAGCGTGC | -0.0637 |
| GCCAGCAC | -0.199 |
| GTTAGGAA | -0.0319 |
| TCCGGAAA | -0.0446 |
| CGCACCCG | -0.167 |
| TCGACGAA | 0.157 |
| ATGCCCGC | -0.227 |
| CACATGAG | -0.12 |

| Sequence | PBM E-score |
| --- | --- |
| TAGACGCA | 0.175 |
| ACTTAAAC | 0.0662 |
| CAACTACC | -0.0488 |
| CGAGCGCA | 0.0373 |
| AGCGAGGA | -0.147 |
| CCGGGCGC | -0.306 |
| CATGAAAG | 0.00024 |
| CATACGGA | -0.00572 |
| AGGGCAAA | -0.119 |
| ATGTGTTC | -0.0326 |
| GCTGCAAC | -0.13 |
| GCGCAAAC | 0.101 |
| CCGGGCGA | -0.294 |
| AGGACGGA | -0.156 |
| GCATAATA | 0.263 |
| AAGCAGGG | -0.173 |
| ATGACACG | 0.245 |
| AAACCGAG | -0.175 |
| AGCGTCGC | -0.0959 |
| ACAATTTG | 0.0263 |
| GGTGGGGA | -0.0645 |
| AAACTGTA | 0.058 |

| Sequence | PBM E-score |
| --- | --- |
| CACTAAAC | 0.0741 |
| AAACGGCG | -0.0793 |
| AGTGTAAT | 0.0179 |
| AAATATAA | 0.156 |
| CCACGAGG | -0.196 |
| CTGTCCAC | -0.206 |
| ACTACAGC | -0.225 |
| GGGCTGAA | -0.0664 |
| ATCGATTC | -0.0207 |
| CGTTGCCA | 0.0742 |
| CACACACG | 0.204 |
| AGAGATAA | 0.04 |
| CGTGGACC | -0.193 |
| AGTTTTTC | 0.0954 |
| AACGCAGA | 0.00294 |
| ATCGGCTG | -0.141 |
| GTGTCCCA | -0.0921 |
| GGAGGCAA | -0.309 |
| CAGCGAAC | -0.0146 |
| AGGTCGAG | -0.275 |
| GCGCAATA | 0.0795 |
| ATCAGGGG | -0.332 |

| Sequence | PBM E-score |
| --- | --- |
| GGCACATA | 0.0958 |
| AGAAGGGC | -0.225 |
| GTAATATA | 0.374 |
| CGGGCACG | -0.0149 |
| AACCTTCT | -0.298 |
| ACGTCGCA | 0.323 |
| ACTGGGCA | -0.203 |
| GTATGCTA | 0.194 |
| CCGCTAGG | -0.218 |
| CACCACAA | 0.0375 |
| AATTTCAA | 0.153 |
| ACAAACCT | -0.0212 |
| CTCGTAAC | 0.253 |
| GTAAGAAC | 0.249 |
| ATATAAGG | 0.0146 |
| TATCACGA | 0.166 |
| CCATCAGG | -0.22 |
| CGGACACC | -0.19 |
| TAGTCTGA | 0.0141 |
| AGCGGAGC | -0.27 |
